{"source": "the supplement of paper PMC3334620", "note": "The full ranking holds about 33,000 sequences; the median of “E-score (-0.5 to 0.5)” is about -0.013, and the highest 2% start at about 0.3. The list shows a part of the results.", "data": [{"molecular_target": "T1, Msn1 (UniProt P22148)", "T1 sequence": "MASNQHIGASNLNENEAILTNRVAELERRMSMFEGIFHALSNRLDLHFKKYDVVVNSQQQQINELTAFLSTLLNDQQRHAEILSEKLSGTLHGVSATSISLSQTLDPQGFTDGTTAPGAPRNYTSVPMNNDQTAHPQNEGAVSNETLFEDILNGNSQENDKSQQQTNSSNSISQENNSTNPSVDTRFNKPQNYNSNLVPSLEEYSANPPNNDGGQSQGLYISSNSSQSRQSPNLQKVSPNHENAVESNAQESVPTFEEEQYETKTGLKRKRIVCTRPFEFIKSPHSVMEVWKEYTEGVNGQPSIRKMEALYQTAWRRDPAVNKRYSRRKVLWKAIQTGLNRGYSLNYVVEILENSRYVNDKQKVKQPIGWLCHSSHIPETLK", "experiment": "PBM E-score (8-mer binding enrichment) (E-score (-0.5 to 0.5)); higher = stronger / more preferred TF binding; most listed sequences are background and not binding sites", "details": "protein concentration: 200 nM; construct: GST-full length", "method_in_brief": "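Yeast transcription factors, full-length or as DNA-binding domains, were expressed with a GST tag using PURExpress in vitro transcription/translation. At about 100-200 nM they were applied to universal all-10-mer Agilent arrays, double-stranded by primer extension on fresh or once-stripped slides. Fluorescent anti-GST detected bound protein, and masliner normalised the scans. E-scores for ungapped eight-base words, pooled with reverse complements, came from the Universal PBM Analysis Suite.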", "values": [{"sequence": "AAAAATGT", "PBM E-score": 0.335}, {"sequence": "AGACTCTG", "PBM E-score": -0.103}, {"sequence": "CCTGTAAC", "PBM E-score": -0.106}, {"sequence": "GCCATAGC", "PBM E-score": -0.085}, {"sequence": "AAATCATC", "PBM E-score": -0.0175}, {"sequence": "AGGAAATC", "PBM E-score": 0.0408}, {"sequence": "CCACAAAA", "PBM E-score": 0.0569}, {"sequence": "ACGTTGCG", "PBM E-score": -0.0244}, {"sequence": "CCCAACAC", "PBM E-score": -0.252}, {"sequence": "CACTATGA", "PBM E-score": -0.111}, {"sequence": "ACTATAAT", "PBM E-score": 0.0935}, {"sequence": "CTCAACAG", "PBM E-score": -0.0898}, {"sequence": "GCTAAATA", "PBM E-score": -0.0248}, {"sequence": "CTATCTTA", "PBM E-score": 0.113}, {"sequence": "CAAATGTA", "PBM E-score": 0.276}, {"sequence": "CCGGGTGC", "PBM E-score": -0.176}, {"sequence": "GGAGTTAC", "PBM E-score": -0.0427}, {"sequence": "CCGACCCG", "PBM E-score": 0.0123}, {"sequence": "GACGATTA", "PBM E-score": 0.22}, {"sequence": "GAAGACGC", "PBM E-score": -0.0962}, {"sequence": "CACCCCGG", "PBM E-score": -0.131}, {"sequence": "AATCACAC", "PBM E-score": 0.0772}, {"sequence": "AGGTTACT", "PBM E-score": 0.116}, {"sequence": "CAATATCA", "PBM E-score": 0.19}, {"sequence": "GTCAGAAC", "PBM E-score": -0.0899}, {"sequence": "CAGCGGAA", "PBM E-score": 0.0846}, {"sequence": "CACAATCG", "PBM E-score": 0.00494}, {"sequence": "ACCCGGGA", "PBM E-score": 0.0524}, {"sequence": "GCGGAGTA", "PBM E-score": -0.114}, {"sequence": "GAAACAGC", "PBM E-score": -0.0224}, {"sequence": "CCGCTAAC", "PBM E-score": -0.137}, {"sequence": "TAGGCGCA", "PBM E-score": -0.0236}, {"sequence": "CCATGGCA", "PBM E-score": 0.0767}, {"sequence": "ACTCCGCA", "PBM E-score": -0.0892}, {"sequence": "ACAGAACA", "PBM E-score": 0.0442}, {"sequence": "CCTGCTAC", "PBM E-score": 0.017}, {"sequence": "ATCACAGC", "PBM E-score": 0.053}, {"sequence": "AATGGGCC", "PBM E-score": -0.254}, {"sequence": "ACCGGTCG", "PBM E-score": 0.0493}, {"sequence": "CTGTCATA", "PBM E-score": 0.0936}, {"sequence": "CCCATCAC", "PBM E-score": -0.137}, {"sequence": "CGAGAAGC", "PBM E-score": 0.0414}, {"sequence": "CCCTGATC", "PBM E-score": -0.269}, {"sequence": "AGGATTCG", "PBM E-score": 0.00985}, {"sequence": "AGCTTCGA", "PBM E-score": -0.0376}, {"sequence": "CATGAGTA", "PBM E-score": -0.0485}, {"sequence": "ACTGTCTC", "PBM E-score": -0.00421}, {"sequence": "TCTGGACA", "PBM E-score": 0.381}, {"sequence": "ACAGAGCG", "PBM E-score": 0.0128}, {"sequence": "ATTGTGCG", "PBM E-score": -0.0742}, {"sequence": "ACTTAAGT", "PBM E-score": 0.142}, {"sequence": "CGATTAAC", "PBM E-score": 0.0885}, {"sequence": "CATTACCG", "PBM E-score": 0.0274}, {"sequence": "GAGGGGAC", "PBM E-score": 0.0225}, {"sequence": "ACAGACCG", "PBM E-score": -0.128}, {"sequence": "ACACATCA", "PBM E-score": -0.0471}, {"sequence": "CCCGTCTA", "PBM E-score": 0.04}, {"sequence": "AGGTGACA", "PBM E-score": 0.236}, {"sequence": "ACATAACA", "PBM E-score": 0.182}, {"sequence": "AATGGCAG", "PBM E-score": -0.022}, {"sequence": "AGTCACCA", "PBM E-score": -0.154}, {"sequence": "ATATTTGA", "PBM E-score": 0.115}, {"sequence": "ATGCCTTA", "PBM E-score": -0.264}, {"sequence": "AATCATGT", "PBM E-score": 0.164}, {"sequence": "GGTCCTCA", "PBM E-score": -0.0923}, {"sequence": "GCCCATGA", "PBM E-score": -0.081}, {"sequence": "GCACGCCC", "PBM E-score": -0.0404}, {"sequence": "GAGTTTGC", "PBM E-score": -0.0259}, {"sequence": "CACTTAAG", "PBM E-score": 0.0666}, {"sequence": "CTAAGCTC", "PBM E-score": -0.0292}, {"sequence": "ATGGTGCG", "PBM E-score": -0.0932}, {"sequence": "ACGGCCCT", "PBM E-score": -0.305}, {"sequence": "GTCGCGAA", "PBM E-score": 0.141}, {"sequence": "ACCGACAT", "PBM E-score": 0.28}, {"sequence": "ACCAAACC", "PBM E-score": -0.0217}, {"sequence": "CGAACAGA", "PBM E-score": 0.0524}, {"sequence": "AAGATCAC", "PBM E-score": 0.0378}, {"sequence": "GCCAGGTA", "PBM E-score": 0.0163}, {"sequence": "CCAGGCTC", "PBM E-score": -0.0697}, {"sequence": "TATCCGAA", "PBM E-score": 0.0901}, {"sequence": "GAGAGCCA", "PBM E-score": -0.0964}, {"sequence": "CCGGGTTC", "PBM E-score": -0.208}, {"sequence": "AACTATAC", "PBM E-score": -0.00679}, {"sequence": "AACGTTAC", "PBM E-score": -0.0224}, {"sequence": "GAAGATCA", "PBM E-score": -0.022}, {"sequence": "GCGATGCA", "PBM E-score": -0.287}]}]}
